Test results reported in patent US20080075796A1, “Compositions and Methods for Controlling Insects” (TyraTech, Inc., priority 2003, published 2008).

Tested on: Carpenter ants
Experiment: Repellent effect on carpenter ants (treated filter paper)
Assay type: in vivo
Protocol: Adult insect are randomly selected for testing the repellent effect of compositions and are not individually marked. About 5 insects per replicate are used. About 3 replicates are used for each treatment. Untreated control tests are included with only solvent (acetone) application to an equal sized population/replications, held under identical conditions. A filter paper (about 80 cm^2) is treated with the composition (about 100 mg in […] acetone). After about 3 min of air drying, the filter paper is placed in a dish and repellency against insects is performed. Insects are released to the dish, one insect at a time at the far end of the dish. Using one or more stopwatches, the time spent on either the filter paper or the untreated surface of the dish is recorded up to about 300 seconds. Repellency ratio (RR) is calculated as follows: RR=[(time on control surface−time on treated surface)/total time of test]. If RR>0 then the composition is considered to have a repellant effect, that is to say, an effect, wherein more insects are repelled away from treated surface than the control surface; if RR<0 then the composition is considered not to have a repellant effect.
The repellent effect of various plant essential oils is tested by treating a filter paper with the test oils. After about five minutes at room temperature, the paper is placed in a dish and ants are introduced one at a time. The repellency is determined as described above, in Example 14. Oils are tested alone. Additionally, oils are mixed to form compositions, which are then tested.

Structure (SMILES) | Repellency %, R % (Day 1) [%] | Repellency %, R % (Day 0) [%] | sec. on T surface (Day 0, time on treated surface of up to about 300 seconds) [s]
Cc1ccc(C(C)C)c(O)c1 [thymol] | 30.4 | – | –
CC(C)=CCC/C(C)=C/CO [geraniol] | – | 54.0 | 69
